In PubChem BioAssay AID1963576 (National Center for Advancing Translational Sciences (NCATS), 2024):
Screen size: about 46,000 compounds; about 60 (0.1%) were called active. Another 3% or so got no clear call; they are omitted. Calls come from the whole dose curve; as a rule, active = well fitted inhibition curve with a large enough effect; inconclusive = small, poorly fitted or top-dose-only effect; inactive = no such curve, though single readings can be large or run the other way. The list shows a part of the results.

Assay: Primary qHTS assay for Inhibitors of ovarian cancer metastasis using an organotypic tumor microenvironment (TME) model.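 For activity change, negative = inhibition: plate controls were DMSO wells for no effect and tomatine positive control wells for full effect.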 Note: nearly all actives have a fitted effect of over 65% in size.
Settings: SKOV3ip1-GFP adhesion/invasion on 3D omental model, fluorescence; series mostly up to 45.8 µM; activity change, negative = inhibition: at the top concentration
Summary of the method: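 Adhesion/invasion was scored as fixed GFP-labeled SKOV3ip1 cell counts (488/509 nm), normalized to DMSO and tomatine controls. Cancer cells in serum-free medium, with four compound doses (0.36-46 umol/L), sat 2 hr at RT then 16 hr at 37 C on a 48 hr fibroblast/mesothelial/ECM culture.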

SMILES | activity change, negative = inhibition | outcome
Cn1cccc1-c1cc2n(n1)CCC(=O)N2CC(=O)Nc1ccc(F)cc1Cl | inactive: 0.329% | 
CCCCOc1ccc(C(=O)Nc2ccc3c(c2)N(C(C)=O)CCC3)cc1 | inactive: -1.8% | 
Cc1ccc(S(=O)(=O)N(CC(O)Cn2c3ccccc3c3ccccc32)c2cccc(C(=O)NCCO)c2)cc1 (stereo unspecified) |  | inactive
CCC(Cn1nnc2ccccc2c1=O)NC(=O)Nc1ccccc1Cl (stereo unspecified) |  | inactive
Cc1cccc(-c2cc(-c3ccccc3)nc(SCC(=O)Nc3ccccc3)c2C#N)c1 | inactive: 3.13% | 
CCS(=O)(=O)N1CCc2cc(C(=O)NCc3ccc(C)cc3)ccc21 | inactive: 2.55% | 
O=C(CSc1nc2c([nH]c3ccccc32)c(=O)n1-c1ccc(F)cc1)Nc1ccc2c(c1)OCCO2 | inactive: 2.7% | 
Cc1ccc(NC(=O)CC(c2ccc(F)cc2)N2Cc3ccccc3C2=O)cc1C (stereo unspecified) | inactive: -2% | 
Cc1c(C(=O)NCc2ccc(Cl)cc2)sc2nc3n(c(=O)c12)CCC3 | inactive: 14.1% | 
CCOC(=O)N1CCN(CCC(=O)Nc2cccc(F)c2)CC1 | inactive: 11.3% | 
COCCNC(=O)CN1C(=O)CCn2nc(-c3cn(C)c4ccccc34)cc21 | inactive: 1.96% | 
COc1ccc(-c2nc3n(n2)C(c2ccccc2)C(C(=O)Nc2cccnc2)=C(C)N3)cc1 (stereo unspecified) | inactive: 6.19% | 
CCc1ccccc1NC(=O)c1ccc(F)c(S(=O)(=O)N2CCN(c3ccccc3OC)CC2)c1 |  | inactive
COc1ccc2c(Sc3ccc(C)cc3)c(C(=O)NC(C)c3ccccc3)[nH]c2c1 (stereo unspecified) | inactive: 27.9% | 
COc1cc([C@@H]2Nc3c(F)cccc3[C@@H]3C=CC[C@@H]32)cc(Br)c1OC | inactive: 8.8% | 
Cc1c(C(=O)O)oc2c1-c1nn(Cc3ccccc3Cl)cc1CC2 | inactive: 2.99% | 
CC(=O)c1ccc(NC(=O)c2cc3c(=O)oc4ccc(C)cc4c3s2)cc1 |  | inactive
Cc1ccc(CNC(=O)c2ccc3c(c2)NC(=O)C(CS(=O)(=O)Cc2cccc(F)c2)N3)cc1 (stereo unspecified) | inactive: -8.08% | 
Cc1ccc(N2C(=O)C(CC(=O)Nc3ccc(F)cc3)N(Cc3ccc4c(c3)OCO4)C2=O)cc1 (stereo unspecified) | inactive: -9.51% | 
CCc1nn(CC(=O)NCCCc2ccccc2)c(=O)c2cc3cc(F)ccc3n12 | inactive: 30.6% | 
CCOC(=O)CCNC(=O)N1CCN(S(=O)(=O)c2ccc3c(ccn3C)c2)CC1 | inactive: -9.75% | 
O=C(Nc1nc2c(F)cccc2s1)c1ccc2c(c1)OCCO2 |  | inactive
Cc1ccc(Sc2ccc(N3CCC(C(=O)Nc4ccc(Cl)cc4)CC3)nn2)cc1 | inactive: 10.5% | 

SMILES | activity change, negative = inhibition | outcome
COc1ccc(NC(=O)C2=CC(c3ccc4c(c3)OCO4)=NS(=O)(=O)N2C)cc1OC | inactive: -3.12% | 
O=S(=O)(c1ccc(Cl)cc1)c1nc(-c2ccccc2F)oc1NCc1ccccc1 | inactive: 8.91% | 
Cc1ccc(C(=O)Nc2ccc(S(=O)(=O)N(Cc3ccccc3)c3ccccc3)cc2)cc1 | inactive: -6.93% | 
Cc1cccc(N2C(=O)C(CC(=O)Nc3cccc(F)c3)N(CCc3ccncc3)C2=O)c1 (stereo unspecified) |  | inactive
O=C(CSCn1nnc2c(=O)[nH]c(Cc3ccc(F)cc3)nc21)Nc1ccccc1 | inactive: 3.56% | 
O=C(COc1ccc(F)cc1)Nc1ccc2nc(SCCOc3ccccc3)sc2c1 |  | inactive
CCCCNC(=O)C1CCC(Cn2c(=O)c3sccc3n(CC(=O)Nc3ccccc3)c2=O)CC1 (stereo unspecified) | inactive: -1.27% | 
N#Cc1ccc(NC(=O)C2Cc3ccccc3CN2S(=O)(=O)c2ccc(F)cc2)cc1 (stereo unspecified) | inactive: 7.08% | 
Cc1cc(F)ccc1S(=O)(=O)Nc1cc2c(C(=O)O)c(C)oc2c2ccccc12 | inactive: -0.732% | 
C[C@H](CCC(=O)O)[C@H]1CC[C@H]2[C@@H]3[C@H](O)C[C@@H]4C[C@H](O)CC[C@]4(C)[C@@H]3CC[C@]12C | inactive: 3.24% | 
Cc1cc(N2CCN(c3cc(Cl)ccc3C)CC2)n2nc(-c3ccccc3)nc2n1 | inactive: -19.7% | 
COc1ccc(OC)c(CC2C(=O)Nc3ccc(Br)cc32)c1 (stereo unspecified) | inactive: -5.71% | 
CCOC(=O)c1c(C)oc2ccc(N(C(C)=O)S(=O)(=O)c3c(C)cc(C)cc3C)cc12 | inactive: -5.09% | 
COC(=O)c1cc2sccc2n1Cc1ccc(F)cc1Cl | inactive: -12.6% | 
O=C(NC1CCN(Cc2ccccc2)CC1)c1ccc(Cn2c(=O)c3ccccc3n(Cc3cccc(F)c3)c2=O)cc1 | inactive: -12.9% | 
COc1ccc(Oc2nc3c(c(=O)n(C)c(=O)n3C)n2Cc2ccc(Cl)cc2Cl)cc1 | inactive: -6.47% | 
COc1cc(-c2cc3n(C)c(C)c(CCC(=O)NC4CCCCC4)c(=O)n3n2)cc(OC)c1OC |  | inactive
Cc1cccc(C)c1NC(=O)CCC(=O)N1Cc2ccccc2Oc2ncccc21 | inactive: 0.734% | 
CCC(=O)N1CCc2cc(Br)cc(S(=O)(=O)CCC(=O)Nc3ccc(Cl)cc3)c21 | inactive: -2.93% | 
CCOC(=O)c1cc(-c2ccc(C)cc2)n(CCC(=O)NCCc2ccc(C)cc2)c1C |  | inactive
CCC(=O)N1CCc2cc(Br)cc(S(=O)(=O)N3CCN(c4cc(C)ccc4C)CC3)c21 | inactive: -0.923% | 
CCN(CC)CCNC(=O)c1cn(CC)c2ccc(S(=O)(=O)N3CCc4ccccc4C3)cc2c1=O |  | inactive
COCCn1c(=N)c(C(=O)NC2CCCC2)cc2c(=O)n3cc(C)ccc3nc21 |  | inactive
